Consider 20 molecules from publication PMC9911399, “Two distinct binding modes provide the RNA-binding protein RbFox with extraordinary sequence specificity”.

T1: RBFOX1 RRM RbFoxmut (Fox-RRM*) (Homo sapiens, UniProt Q9NWB1 109-208, R118D;E147R;N151S;E152T)
T1 sequence: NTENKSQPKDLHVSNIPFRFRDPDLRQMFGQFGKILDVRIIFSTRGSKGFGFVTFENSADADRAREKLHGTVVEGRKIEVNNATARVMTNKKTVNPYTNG

B1: UACUUUC (DNA:RNA)
RNA: GGGAGACCGGAAUUCAGAUUGUCCUACUUUCUUAAAUCCCGUCGUAGCCACCA
DNA 1: CAATCTGAATTCCGGTCTCCC
DNA 2: TGGTGGCTACGACGGGATT
B2: UUGUGAC (DNA:RNA)
RNA: B1 RNA with A26U, C27G, U29G, U30A
DNA 1: CAATCTGAATTCCGGTCTCCC
DNA 2: TGGTGGCTACGACGGGATT
B3: CUCCUGU (DNA:RNA)
RNA: B1 RNA with U25C, A26U, U28C, U30G, C31U
DNA 1: CAATCTGAATTCCGGTCTCCC
DNA 2: TGGTGGCTACGACGGGATT
B4: CACUUUU (DNA:RNA)
RNA: B1 RNA with U25C, C31U
DNA 1: CAATCTGAATTCCGGTCTCCC
DNA 2: TGGTGGCTACGACGGGATT
B5: UCCUAUG (DNA:RNA)
RNA: B1 RNA with A26C, U29A, C31G
DNA 1: CAATCTGAATTCCGGTCTCCC
DNA 2: TGGTGGCTACGACGGGATT
B6: AUUGUGC (DNA:RNA)
RNA: B1 RNA with U25A, A26U, C27U, U28G, U30G
DNA 1: CAATCTGAATTCCGGTCTCCC
DNA 2: TGGTGGCTACGACGGGATT
B7: CAUGUUA (DNA:RNA)
RNA: B1 RNA with U25C, C27U, U28G, C31A
DNA 1: CAATCTGAATTCCGGTCTCCC
DNA 2: TGGTGGCTACGACGGGATT
B8: UCCCGAA (DNA:RNA)
RNA: B1 RNA with A26C, U28C, U29G, U30A, C31A
DNA 1: CAATCTGAATTCCGGTCTCCC
DNA 2: TGGTGGCTACGACGGGATT
B9: UCGUCAC (DNA:RNA)
RNA: B1 RNA with A26C, C27G, U29C, U30A
DNA 1: CAATCTGAATTCCGGTCTCCC
DNA 2: TGGTGGCTACGACGGGATT
B10: AUAGACA (DNA:RNA)
RNA: GGGAGACCGGAAUUCAGAUUGUCCAUAGACAUUAAAUCCCGUCGUAGCCACCA
DNA 1: CAATCTGAATTCCGGTCTCCC
DNA 2: TGGTGGCTACGACGGGATT
B11: ACGGGAG (DNA:RNA)
RNA: B10 RNA with U26C, A27G, A29G, C30A, A31G
DNA 1: CAATCTGAATTCCGGTCTCCC
DNA 2: TGGTGGCTACGACGGGATT
B12: GCAAUAC (DNA:RNA)
RNA: B1 RNA with U25G, A26C, C27A, U28A, U30A
DNA 1: CAATCTGAATTCCGGTCTCCC
DNA 2: TGGTGGCTACGACGGGATT
B13: ACCCGUA (DNA:RNA)
RNA: B10 RNA with U26C, A27C, G28C, A29G, C30U
DNA 1: CAATCTGAATTCCGGTCTCCC
DNA 2: TGGTGGCTACGACGGGATT
B14: GCUAGCU (DNA:RNA)
RNA: B10 RNA with A25G, U26C, A27U, G28A, A29G, A31U
DNA 1: CAATCTGAATTCCGGTCTCCC
DNA 2: TGGTGGCTACGACGGGATT
B15: UUGUGCC (DNA:RNA)
RNA: B1 RNA with A26U, C27G, U29G, U30C
DNA 1: CAATCTGAATTCCGGTCTCCC
DNA 2: TGGTGGCTACGACGGGATT
B16: GUUUAGA (DNA:RNA)
RNA: B10 RNA with A25G, A27U, G28U, C30G
DNA 1: CAATCTGAATTCCGGTCTCCC
DNA 2: TGGTGGCTACGACGGGATT
B17: CCAUCGU (DNA:RNA)
RNA: B10 RNA with A25C, U26C, G28U, A29C, C30G, A31U
DNA 1: CAATCTGAATTCCGGTCTCCC
DNA 2: TGGTGGCTACGACGGGATT
B18: UUACGCC (DNA:RNA)
RNA: B10 RNA with A25U, G28C, A29G, A31C
DNA 1: CAATCTGAATTCCGGTCTCCC
DNA 2: TGGTGGCTACGACGGGATT
B19: UGAAUAA (DNA:RNA)
RNA: B10 RNA with A25U, U26G, G28A, A29U, C30A
DNA 1: CAATCTGAATTCCGGTCTCCC
DNA 2: TGGTGGCTACGACGGGATT
B20: ACCAUAC (DNA:RNA)
RNA: B1 RNA with U25A, A26C, U28A, U30A
DNA 1: CAATCTGAATTCCGGTCTCCC
DNA 2: TGGTGGCTACGACGGGATT

Where a chain is given by its changes, count along the chain named. The list shows a part of the results.

For this experiment, the target named is T1, RBFOX1 RRM RbFoxmut (Fox-RRM*). In words: EMSA; HiTS-Eq, 1 nM pool, 10 min; buffer printed only for the single-RNA assays: 10 mM Tris pH 7.5, 150 mM NaCl, 3.4 mM EDTA, 0.001% NP-40, 30 C. The settings on record: tags: His6 N-terminal (pET28a); label: 5' 32P. In outline:
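Purified wild-type or mutant RbFox RRM at increasing concentrations was equilibrated with 1 nM of 5′-radiolabelled RNA carrying 7 randomized nucleotides for 10 min in 50 µL. Unbound RNA was separated by 8% native PAGE and sequenced. Relative association constants came from read-count changes of each RNA species compared with the control reaction, normalised to the cognate motif.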
Background: A gel shift assay detects complexes by their altered migration in electrophoresis.
For B1, the binding signal was 0.0804 KA relative to UGCAUGU.
For the molecule B2, the binding signal is 0.052 KA relative to UGCAUGU.
As to B3, the binding signal is 0.0704 KA relative to UGCAUGU.
In the case of B4 it was 0.0858 KA relative to UGCAUGU.
As to B5, the binding signal was 0.141 KA relative to UGCAUGU.
Take B6: the binding signal is 0.191 KA relative to UGCAUGU.
Next, B7: 0.109 KA relative to UGCAUGU; B8: 0.066 KA relative to UGCAUGU; B9: 0.106 KA relative to UGCAUGU.
Next, B10: 0.0765 KA relative to UGCAUGU; B11: 0.119 KA relative to UGCAUGU.
Next, B12: 0.0774 KA relative to UGCAUGU; B13: 0.131 KA relative to UGCAUGU.
For the molecule B14, the binding signal is 0.0867 KA relative to UGCAUGU.
In the case of B15 it was 0.46 KA relative to UGCAUGU; in that of B16, 0.119 KA relative to UGCAUGU.
Consider B17, for which the binding signal was 0.114 KA relative to UGCAUGU.
As to B18, the binding signal was 0.12 KA relative to UGCAUGU.
For the molecule B19, the binding signal is 0.104 KA relative to UGCAUGU.
Next, B20: 0.0923 KA relative to UGCAUGU.
